Experimental data reported in the supplement of paper PMC4604168 (melanoma cell lines).
The list shows a part of the results. Many values rest on one well or one pass, so single values are uncertain.

Tests used:
Assay in all cases: cell count relative to DMSO control; melanoma cells; higher = more viable cells
Details in all cases: library dose: standard library concentration; 72 h
SkMel28 = system: SkMel28
SkMel2 = system: SkMel2
SkMel30 = system: SkMel30
SkMel5 = system: SkMel5
UACC257 = system: UACC257
UACC62 = system: UACC62
WM115 = system: WM115
WM1716 = system: WM1716
WM1745 = system: WM1745
WM3526 = system: WM3526
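Also: cells treated in 1,536-well plates, then fixed and DAPI-stained, with nuclei counted from automated high-throughput microscope images.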

Compound	cell count (SkMel28)	cell count (SkMel2)	cell count (SkMel30)	cell count (SkMel5)	cell count (UACC257)	cell count (UACC62)	cell count (WM115)	cell count (WM1716)	cell count (WM1745)	cell count (WM3526)
CC1(C)CCC(c2ccc(Cl)cc2)=C(CN2CCN(c3ccc(C(=O)NS(=O)(=O)c4ccc(N[C@H](CCN5CCOCC5)CSc5ccccc5)c(S(=O)(=O)C(F)(F)F)c4)cc3)CC2)C1 + OCCn1cc(-c2cnc3nnn(Cc4ccc5ncccc5c4)c3n2)cn1 [PF04217903] (first compound 2 µM, partner dose 5 µM)	73.4%	80.1%	71.6%	96%	26.4%	103%	62.7%	69%	7.4%	74.6%
CC1(C)CCC(c2ccc(Cl)cc2)=C(CN2CCN(c3ccc(C(=O)NS(=O)(=O)c4ccc(N[C@H](CCN5CCOCC5)CSc5ccccc5)c(S(=O)(=O)C(F)(F)F)c4)cc3)CC2)C1 + CN(NC(=O)CC(=O)NN(C)C(=S)c1ccccc1)C(=S)c1ccccc1 [STA4783] (first compound 2 µM, partner dose 0.03 µM)	61.4%	48.3%	76.7%	75.2%	52%	52.3%	27.4%	44.7%	6.25%	68%
Cc1ccc(Nc2nccc(N(C)c3ccc4c(C)n(C)nc4c3)n2)cc1S(N)(=O)=O [Pazopanib] + CCN(CC)CCNC(=O)c1c(C)[nH]c(/C=C2\C(=O)Nc3ccc(F)cc32)c1C [sunitinib] (first compound 2 µM, partner dose 2 µM)	41.6%	74.5%	67.2%	52%	82.6%	53.4%	55.7%	105%	68.6%	48.9%
O=C(/C=C/c1cccnc1)NCCCCC1CCN(C(=O)c2ccccc2)CC1 + CC(C)C[C@H](NC(=O)[C@H](Cc1ccccc1)NC(=O)c1cnccn1)B(O)O [Bortezomib] (first compound 0.05 µM, partner dose 0.005 µM)	22.2%	3.16%	28.9%	32%	83.1%	70.6%	29.5%	15.6%	15.2%	22%
CC1(C)CCC(c2ccc(Cl)cc2)=C(CN2CCN(c3ccc(C(=O)NS(=O)(=O)c4ccc(N[C@H](CCN5CCOCC5)CSc5ccccc5)c(S(=O)(=O)C(F)(F)F)c4)cc3)CC2)C1 + CCCS(=O)(=O)Nc1ccc(F)c(C(=O)c2c[nH]c3ncc(Cl)cc23)c1F [PLX4720] (first compound 2 µM, partner dose 0.4 µM)	44.7%	87.3%	55.4%	53.9%	37%	67.1%	74.1%	65.8%	4.5%	36.4%
Cc1ccc(Nc2nccc(N(C)c3ccc4c(C)n(C)nc4c3)n2)cc1S(N)(=O)=O [Pazopanib] + CNC(=O)c1cc(Oc2ccc(NC(=O)Nc3ccc(Cl)c(C(F)(F)F)c3)cc2)ccn1 [sorafenib] (first compound 2 µM, partner dose 2 µM)	78%	82.7%	113%	77.1%	78%	59.7%	87%	104%	71.5%	67.9%
CC1(C)CCC(c2ccc(Cl)cc2)=C(CN2CCN(c3ccc(C(=O)NS(=O)(=O)c4ccc(N[C@H](CCN5CCOCC5)CSc5ccccc5)c(S(=O)(=O)C(F)(F)F)c4)cc3)CC2)C1 + Cc1nc(Nc2ncc(C(=O)Nc3c(C)cccc3Cl)s2)cc(N2CCN(CCO)CC2)n1 [dasatanib] (first compound 2 µM, partner dose 0.02 µM)	66.5%	90.3%	77.5%	51.2%	36.7%	54.9%	39.2%	42%	2.67%	68%
O=C(/C=C/c1cccnc1)NCCCCC1CCN(C(=O)c2ccccc2)CC1 + CS(=O)(=O)CCNCc1ccc(-c2ccc3ncnc(Nc4ccc(OCc5cccc(F)c5)c(Cl)c4)c3c2)o1 [lapatinib] (first compound 0.05 µM, partner dose 4 µM)	70.8%	14.9%	80.3%	62.7%	103%	63.3%	75.4%	60.2%	81.3%	66.2%
CC1(C)CCC(c2ccc(Cl)cc2)=C(CN2CCN(c3ccc(C(=O)NS(=O)(=O)c4ccc(N[C@H](CCN5CCOCC5)CSc5ccccc5)c(S(=O)(=O)C(F)(F)F)c4)cc3)CC2)C1 + NC(=O)c1ccc(N(C(N)=O)c2c(F)cccc2F)nc1-c1ccc(F)cc1F [VX702] (first compound 2 µM, partner dose 2 µM)	104%	72.8%	54.8%	81.4%	43.2%	93.5%	85.7%	66.9%	7.67%	83%
Cc1ccc(Nc2nccc(N(C)c3ccc4c(C)n(C)nc4c3)n2)cc1S(N)(=O)=O [Pazopanib] + O=C(O)c1ccc2c(c1)nc(Nc1cccc(Cl)c1)c1ccncc12 [CX4945] (first compound 2 µM, partner dose 2 µM)	55.5%	70.9%	57.9%	53.9%	101%	62.6%	76.5%	92%	89.3%	55.6%
O=C(/C=C/c1cccnc1)NCCCCC1CCN(C(=O)c2ccccc2)CC1 + O=C(O)c1ccc2c(c1)nc(Nc1cccc(Cl)c1)c1ccncc12 [CX4945] (first compound 0.05 µM, partner dose 2 µM)	76.6%	12.7%	72.2%	74.7%	95.5%	61.7%	97.1%	72%	69.8%	86.6%
O=C(/C=C/c1cccnc1)NCCCCC1CCN(C(=O)c2ccccc2)CC1 + NC1(c2ccc(-c3nc4ccn5c(=O)[nH]nc5c4cc3-c3ccccc3)cc2)CCC1 [MK2206] (first compound 0.05 µM, partner dose 2 µM)	75.1%	37.7%	83.6%	88.3%	82.5%	69.9%	70.8%	60.9%	91.9%	70.8%
Cc1ccc(Nc2nccc(N(C)c3ccc4c(C)n(C)nc4c3)n2)cc1S(N)(=O)=O [Pazopanib] + CS(=O)(=O)CCNCc1ccc(-c2ccc3ncnc(Nc4ccc(OCc5cccc(F)c5)c(Cl)c4)c3c2)o1 [lapatinib] (first compound 2 µM, partner dose 4 µM)	40%	77.3%	63%	31.5%	78.3%	30.1%	92.3%	82.2%	84.1%	59.6%
Cc1ccc(Nc2nccc(N(C)c3ccc4c(C)n(C)nc4c3)n2)cc1S(N)(=O)=O [Pazopanib] + NC(=O)c1ccc(N(C(N)=O)c2c(F)cccc2F)nc1-c1ccc(F)cc1F [VX702] (first compound 2 µM, partner dose 2 µM)	68.2%	96.1%	88%	71.2%	91.3%	92.7%	75.1%	109%	96.8%	84%
O=C(/C=C/c1cccnc1)NCCCCC1CCN(C(=O)c2ccccc2)CC1 + COc1ccc(Cl)c(Nc2nc3ccccc3nc2NS(=O)(=O)c2cccc(NC(=O)C(C)(C)N)c2)c1 [XL147] (first compound 0.05 µM, partner dose 4 µM)	75.5%	9.82%	103%	94.6%	86.6%	79.2%	103%	89.2%	96.7%	111%
CC1(C)CCC(c2ccc(Cl)cc2)=C(CN2CCN(c3ccc(C(=O)NS(=O)(=O)c4ccc(N[C@H](CCN5CCOCC5)CSc5ccccc5)c(S(=O)(=O)C(F)(F)F)c4)cc3)CC2)C1 + C=C(c1ccc(C(=O)O)cc1)c1cc2c(cc1C)C(C)(C)CCC2(C)C [Bexarotene] (first compound 2 µM, partner dose 10 µM)	65.5%	74.3%	58.4%	73.3%	38.2%	98.8%	115%	54.9%	11.5%	72.9%
Cc1ccc(Nc2nccc(N(C)c3ccc4c(C)n(C)nc4c3)n2)cc1S(N)(=O)=O [Pazopanib] + COc1ccc(Cl)c(Nc2nc3ccccc3nc2NS(=O)(=O)c2cccc(NC(=O)C(C)(C)N)c2)c1 [XL147] (first compound 2 µM, partner dose 4 µM)	70.2%	93.3%	101%	55.5%	76.3%	61.8%	75.9%	71.3%	69.9%	69.5%
Cc1ccc(Nc2nccc(N(C)c3ccc4c(C)n(C)nc4c3)n2)cc1S(N)(=O)=O [Pazopanib] + Cn1nnc2c(C(N)=O)ncn2c1=O [temozolomide] (first compound 2 µM, partner dose 10 µM)	43%	85.1%	76.7%	76.1%	83%	66.6%	72.5%	54.4%	96.5%	85%
O=C(/C=C/c1cccnc1)NCCCCC1CCN(C(=O)c2ccccc2)CC1 + Cn1c(=O)n(-c2ccc(C(C)(C)C#N)cc2)c2c3cc(-c4cnc5ccccc5c4)ccc3ncc21 [NVP-BEZ235] (first compound 0.05 µM, partner dose 0.02 µM)	34.7%	32.7%	77.8%	55.9%	91.8%	60.5%	65.1%	65.3%	70.3%	60%
CC1(C)CCC(c2ccc(Cl)cc2)=C(CN2CCN(c3ccc(C(=O)NS(=O)(=O)c4ccc(N[C@H](CCN5CCOCC5)CSc5ccccc5)c(S(=O)(=O)C(F)(F)F)c4)cc3)CC2)C1 + Nc1cccc2c1CN(C1CCC(=O)NC1=O)C2=O [lenalidomide] (first compound 2 µM, partner dose 5 µM)	91%	73.7%	59.7%	90.6%	40.4%	67.2%	102%	66%	4.48%	86.5%
